Measurements taken from the RNAGym collection of RNA variant scans (doi:10.7554/elife.90254).
Read counts are not given, so values of variants with three or more changes are uncertain.

B1: LINE1-full (parent)
chain: UACGUAGGUGGUUUUCCCCUGAUAGUGCUAAGGGGGCCUGGAAGUUUGGACUGGGCAGAGCUCAACACAGCGUGGCAAAGUGGCUGUGGCUAGACUGCCUCUCUGGAUUCCUCGUCACUCAGCAGGGCAUCUCUGAGAGAAAUGCC

Variants of: B1
Test: self-cleavage, relative activity (ratio to wild type); higher = more cleavage; in vitro, sequencing; the parent is a self-cleaving ribozyme

Variant	self-cleavage
UACGUAGGUGGUUUUCCCCUGAUAGUGCUAAGGGGGCCUGGAAGUUUGGACUGGGCAGAGCUCAACACAGCGUGGCGAAGUGGCUGAGGCUAGACUGCCUCUCUGGAUUCCUCGUCACUCAGCAGGGCAUCUCUGAGGGAAAUGCC [A77G U87A A138G]	0.19
UGCGUAGGUGGUUUUCCCCUGAUAGUGCUAAGGGGGCCUGGAAGUUCGGACUGGGCAGAGCUCAGCACAGCGUGGCAAAGUGGCUGUGGCUAGUCUGCCUCUCUGGAUUCCUCGUCACUCAGCAGGGCAUCUCUGAGAGAAAUGCC [A2G U47C A65G A94U]	0.44
UACGGAGGUGGUUUUCCCCUGAUAGUGCUAAGGGGGCCAGGAAGUUUGGACUGGGCAGAGCCCAACACAGCGUGGCAAAGUGGUUGUGGCUAGACUGCCUCUCUGGAUUCCUCGUCACUCAGCAGGGCAUCUCUGAGAGAGAUGCC [U5G U39A U62C C84U A141G]	0.1
UACGUAGGUGGUUUUCCCCCGUUAGUGCUAAGGGGGCCUGGAAGUUUGGACUGGGCAGAGCUCAACACAGCGUGGCAAAGUGGCUGUGGCUAGACAGCCUCUCUGGAUUCCUCGUCACUCAGCAGGGCAUCUCUGAGAGAAAUGCC [U20C A22U U96A]	0.06
UACGUAGGGGGUUUUCCCUUGAUAGUGCUAAAGGGGCCUGGAAGUUUGGACUGGGCAGAGCUCAACACAGCGUGGCAAAGUGGCUGUGGCUAGACUGCCUCACUGGAUUCCUCGUCACUCAGCAGGGCAUCUCUGAGAGAAAUGCC [U9G C19U G32A U102A]	0.68
UACGUAGGUGGUUUUCCCCUGAUAGUGCUAAGGGGGCCUGGAAGUUUGGACUGGGCAGAGCUCAACGCAGCGUGGCAAAGUGGCUAUGGCUAGACUGCCUCUCUAGAUUCCUCGUCACUCAGCAGGGCAUCUCUGAGGGAAAUGCC [A67G G86A G105A A138G]	0.04
UACGUAGGUGGUUUUCCCCUGAUAGUGCUAAGGGGGCCUUGAAGUUUGGACUGGGCAGAGCUCAACACAGCGUGGCAGAGUGGCUGUGGCUAGUCUGCCUCUCUGGAUUCCUCGUCACUCAGCAGGGCAUCUCUGAGAGAAAUGCC [G40U A78G A94U]	0.12
UACGUAGGUGGUCUUCUCCUGAUAGUGCUAAGGGGGCCUGGAAGUUUGGACUGGGCAGAGCUCAACACAGCGUGGCAAAGUGGCUGUGGCUUGACUGCCUCUCUGGAUUCCUCGUCACUCAGCAGGGCAUCUCUGGGAGAAAUGCC [U13C C17U A92U A136G]	0.66
UACGUAGGUGGUUUUCCCCUGAUAGUGCUAAGGGGGCCUGGAAGUUCGGACUGGGCAGAGCUCAACACAGCGUGGCAAAGUGGCUGUGGCUAGACAGCCUCUCUGGAUUCCUCGUCACUCAGCAGGGCAUCUCUGAGGGAGAUGCC [U47C U96A A138G A141G]	0.38
UACGUAGGUGGUUAUCCCCUGAUAGCGCUAAGGGGGCCUGGAAGUUUGGACUGGGCAGAGCUCAACACAGCGUGGCAAUGUGGCUGUGGCUAGACUGCCUCUCUGGAUUCCUCGUCACUCAGCAGGGCAUCUCUGAGAGAAACGCC [U14A U26C A79U U143C]	1.09
UACGUAGGUGGUUUUCCCCUGAUAGCGCUAAGGGGGCCUGUAAGUUUGGACUGGGCGGAGCUCAACACAGCGUGGCAAAGCGGCUGUGGCUAGACUGCCUCUCUGGAUUCCUCGUCACUCAGCAGGGCAUCUCUGAGAGAAAUGCC [U26C G41U A57G U81C]	0.68
UACGUAGGUGGUUUCCCCCUGAUAGUGCUAAGGGGGCCUGGAAGUUUGGACUGGGCAGAGCUCAACACAGCGUGGCAAAGUGGCUGUGGCUAGACUGCCUCUCUGGUUUCUUCGUCACUCAGCAGGGCAUCUCUGAGAGAAAUGCC [U15C A107U C111U]	1.53
UACGUAGGUGGUUUUCCCCUGAUAGUGCUAAGGGGGCCUGGGAGUUUGGACUGGGCAGAGCUCAACACAGCGUGGCAAAGUGGCCGUGGCUAGACUGCCUCUCAGGAUUCCUCGUCACUCAGCAGGGCAUCUCUGAGAGAAAUGCC [A42G U85C U104A]	0.15
UACGUAGGUGGUUUUCCCCUGAUAGUGCUUUGGGGGCCUGGAAGUUAGGACUCGGCAGAGCUCAACACAGCGUGGCAGAGUGGCUGUGGCUAGACUGCCUCUCUGGAUUCCUCGGCACUCAGCAGGGCAUCUCUGAGAGGAAUGCC [A30U A31U U47A G53C A78G U115G A140G]	0
UACGUAGGUGGUUCUCCCCUGAUAGUGCUAAGGGGGCCUGGAAGUUUGGACUGGGCAGAGCUCAGCACAGCGUGGCGAAGUGGCUGUGGCUAGACUGCCUCUCUGGAUUCCUCGUCACUUAGCAGGGCAUCUCUGAGAGAAAUGCC [U14C A65G A77G C120U]	0.24
UGCGUAGGUGGUUUUCCCCUGAUAGUGCUAAGGGGGCCUGGAAGUUUGAACUGGGCAGAGCUCAACACAGCGUGGCAACGUGGCUGUGGCUAGACUGCCUCUCUGGAUUCCUCGUCACUCAGCAGGGCAUCUCUGAGAGAAAUGCC [A2G G49A A79C]	1.04
UACGUGGGUGGUUCUCCCCUGAUAGGGCUAAGGGGGCCCGGAAGCUUGGACUGGGCAGAGCUCAACACAGCGUGGCAAAGUGGCUGUGGCUAGACUGCCUCUCUGGAUUCCUCGUCACUCAGCGGGGCAUCUCUGAGAGAAAUGCC [A6G U14C U26G U39C U45C A124G]	0.84
AACGUAGGUGGUUUUCCCCUGAUAGUGCUAAGGGGGCCAGGAAGUUUGGACUGGGCAGAGCUCAGCACAGCGAGGCAAAGUGGCUGAGGCUAGACUGCCUCUCUGGAUUCCUCGUCACUCAGCAGGGCAUCUCUGAGAGAAACGCC [U1A U39A A65G U73A U87A U143C]	0.15
UACGUAGGUGGUUUUCCCCUGAUAGUGCUAAGGGGGCCUGGAAGUUUGGACUGGGCAGAGCCCAACACAGCGUGGCAAAGUGGCUGUGGCUAGACUGCCUCUCUGGAUUCCUCGUCACUCUGCAGGGCAUCUCUGAGAGAAACGCC [U62C A121U U143C]	0.04
